Measurements taken from publication PMC5501724, “Structural Basis for Specific Interaction of TGFβ Signaling Regulators SARA/Endofin with HD-PTP” (Structure(London, England:1993), 2017).
Results are given in words; binding and its absence hold for the method and conditions named. For part of these data: Binding seen in cells or lysates may run through a third protein. Some entries that bind do so weakly or less than the wild type. For part of these data: Tags and fused reporters may be left off the sequences shown.

Amino acid sequences for entries named in this document (tags omitted). Residues count along the entry.
UniProt Q8WUM4, residues 1-359: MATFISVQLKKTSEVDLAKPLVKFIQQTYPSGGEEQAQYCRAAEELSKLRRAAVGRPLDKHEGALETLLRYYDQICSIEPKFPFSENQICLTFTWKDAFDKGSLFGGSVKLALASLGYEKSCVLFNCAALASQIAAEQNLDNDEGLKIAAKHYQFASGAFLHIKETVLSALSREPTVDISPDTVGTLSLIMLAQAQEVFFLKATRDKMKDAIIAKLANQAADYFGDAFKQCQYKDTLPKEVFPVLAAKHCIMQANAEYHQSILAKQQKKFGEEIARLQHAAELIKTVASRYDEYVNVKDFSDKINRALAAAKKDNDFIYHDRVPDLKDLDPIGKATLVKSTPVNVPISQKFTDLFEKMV

What was measured:
[1] = biological target: HD-PTPFL (full-length), yeast two-hybrid construct (human) (UniProt Q9H3S7); experiment: two-hybrid; directed yeast two-hybrid, Clontech Matchmaker Gold, Y2H Gold strain; interactions selected on QDO plates with 0.4% glucose and 1% galactose; in triplicate
[2] = biological target: T1, HD-PTP_(Bro1-CC), yeast two-hybrid construct (human) (UniProt Q9H3S7); experiment: as above
T1 sequence: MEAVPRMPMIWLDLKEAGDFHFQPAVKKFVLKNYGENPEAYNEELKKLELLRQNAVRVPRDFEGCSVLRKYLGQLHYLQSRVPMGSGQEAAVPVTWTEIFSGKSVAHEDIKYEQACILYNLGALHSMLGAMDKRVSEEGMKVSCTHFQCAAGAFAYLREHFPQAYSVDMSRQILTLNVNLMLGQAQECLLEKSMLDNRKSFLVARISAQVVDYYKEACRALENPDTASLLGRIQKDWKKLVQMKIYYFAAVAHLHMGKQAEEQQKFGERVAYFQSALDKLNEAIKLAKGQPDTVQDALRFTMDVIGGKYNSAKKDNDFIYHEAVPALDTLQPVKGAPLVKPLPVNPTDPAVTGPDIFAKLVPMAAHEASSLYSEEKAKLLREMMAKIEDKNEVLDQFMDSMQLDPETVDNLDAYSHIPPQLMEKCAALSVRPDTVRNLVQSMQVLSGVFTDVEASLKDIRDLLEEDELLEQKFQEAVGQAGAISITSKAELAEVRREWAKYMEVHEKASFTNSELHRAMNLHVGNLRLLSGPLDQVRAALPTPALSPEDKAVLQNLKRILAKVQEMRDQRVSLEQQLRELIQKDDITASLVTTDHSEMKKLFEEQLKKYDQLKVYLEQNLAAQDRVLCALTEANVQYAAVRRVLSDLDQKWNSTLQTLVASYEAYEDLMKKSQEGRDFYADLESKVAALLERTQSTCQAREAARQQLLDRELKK

[3] = biological target: HA-HD-PTP (hemagglutinin-tagged HD-PTP, wild type) (human) (UniProt Q9H3S7); experiment: co-IP; co-expressed HD-PTP and endofin/SARA (Figure S1B); HD-PTP-myc/endofin-Strep IP from HeLa cells stably expressing HD-PTP-myc induced with doxycyclin
[4] = biological target: T2, His6-HD-PTP_(Bro1) (1-361) (human, UniProt Q9H3S7 1-361); experiment: SPR; ProteOn XPR36; His6-tagged proteins immobilised on a HTE chip (5000-8000 RU); synthetic peptides as analytes, five concentrations; 10 mM HEPES pH 7.4, 150 mM NaCl, 0.05% Tween 20; 25°C; equilibrium binding fit; both purified
T2 construct: HD-PTP/PTPN23, Bro1 domain, residues 1-361; Immobilised by its His6 tag on the HTE chip; also called HD-PTP Bro1 domain; source: E. coli BL21 (DE3), purified (Nickel-beads, MonoQ, Superdex 200); not shown: His6, N-terminal, kept
T2 sequence (looked up): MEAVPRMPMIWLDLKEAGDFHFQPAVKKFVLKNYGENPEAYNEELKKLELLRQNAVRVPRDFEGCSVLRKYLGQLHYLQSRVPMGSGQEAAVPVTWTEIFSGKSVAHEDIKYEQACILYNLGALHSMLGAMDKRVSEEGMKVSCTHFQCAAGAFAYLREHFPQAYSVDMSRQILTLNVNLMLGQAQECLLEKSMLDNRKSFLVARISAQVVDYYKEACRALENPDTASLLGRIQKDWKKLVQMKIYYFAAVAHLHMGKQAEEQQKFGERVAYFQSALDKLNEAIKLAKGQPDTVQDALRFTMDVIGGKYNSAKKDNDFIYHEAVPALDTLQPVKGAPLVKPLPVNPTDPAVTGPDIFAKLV

[5] = biological target: T3, His6-HD-PTP_(Bro1-CC) (1-714), bacterially expressed (human) (UniProt Q9H3S7); experiment: as above
T3 sequence: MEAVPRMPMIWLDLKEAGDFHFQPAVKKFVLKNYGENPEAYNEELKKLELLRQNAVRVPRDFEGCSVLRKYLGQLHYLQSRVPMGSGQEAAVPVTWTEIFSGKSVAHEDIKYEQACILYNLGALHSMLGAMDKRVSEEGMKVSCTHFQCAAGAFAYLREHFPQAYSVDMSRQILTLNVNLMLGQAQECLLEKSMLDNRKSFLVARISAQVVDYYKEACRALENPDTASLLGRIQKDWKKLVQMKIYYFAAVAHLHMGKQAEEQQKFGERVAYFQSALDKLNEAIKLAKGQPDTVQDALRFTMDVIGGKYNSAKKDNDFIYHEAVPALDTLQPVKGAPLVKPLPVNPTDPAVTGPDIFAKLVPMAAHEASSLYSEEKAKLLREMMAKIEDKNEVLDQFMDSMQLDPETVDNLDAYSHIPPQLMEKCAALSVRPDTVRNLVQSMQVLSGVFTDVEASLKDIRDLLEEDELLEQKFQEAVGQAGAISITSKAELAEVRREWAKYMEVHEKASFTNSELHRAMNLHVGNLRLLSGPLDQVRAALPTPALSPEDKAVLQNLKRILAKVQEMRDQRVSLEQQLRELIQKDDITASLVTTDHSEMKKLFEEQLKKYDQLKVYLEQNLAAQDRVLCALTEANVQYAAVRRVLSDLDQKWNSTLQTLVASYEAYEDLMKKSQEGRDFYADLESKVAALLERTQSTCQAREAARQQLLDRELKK

His6-Alix_(Bro1) (1-359) = His6-Alix_(Bro1) (1-359) (UniProt Q8WUM4); experiment: as above

With “full-length endofin, yeast two-hybrid construct (from UniProt Q7Z3T8 1-1539)” the binding [1] was “binds” and the binding [2] was “binds”.

B1: SARA co-expressed with HD-PTP (Figure S1B) (protein, UniProt O95405 1-1425)
chain: MENYFQAEAYNLDKVLDEFEQNEDETVSSTLLDTKWNKILDPPSHRLSFNPTLASVNESAVSNESQPQLKVFSLAHSAPLTTEEEDHCANGQDCNLNPEIATMWIDENAVAEDQLIKRNYSWDDQCSAVEVGEKKCGNLACLPDEKNVLVVAVMHNCDKRTLQNDLQDCNNYNSQSLMDAFSCSLDNENRQTDQFSFSINESTEKDMNSEKQMDPLNRPKTEGRSVNHLCPTSSDSLASVCSPSQLKDDGSIGRDPSMSAITSLTVDSVISSQGTDGCPAVKKQENYIPDEDLTGKISSPRTDLGSPNSFSHMSEGILMKKEPAEESTTEESLRSGLPLLLKPDMPNGSGRNNDCERCSDCLVPNEVRADENEGYEHEETLGTTEFLNMTEHFSESQDMTNWKLTKLNEMNDSQVNEEKEKFLQISQPEDTNGDSGGQCVGLADAGLDLKGTCISESEECDFSTVIDTPAANYLSNGCDSYGMQDPGVSFVPKTLPSKEDSVTEEKEIEESKSECYSNIYEQRGNEATEGSGLLLNSTGDLMKKNYLHNFCSQVPSVLGQSSPKVVASLPSISVPFGGARPKQPSNLKLQIPKPLSDHLQNDFPANSGNNTKNKNDILGKAKLGENSATNVCSPSLGNISNVDTNGEHLESYEAEISTRPCLALAPDSPDNDLRAGQFGISARKPFTTLGEVAPVWVPDSQAPNCMKCEARFTFTKRRHHCRACGKVFCASCCSLKCKLLYMDRKEARVCVICHSVLMNAQAWENMMSASSQSPNPNNPAEYCSTIPPLQQAQASGALSSPPPTVMVPVGVLKHPGAEVAQPREQRRVWFADGILPNGEVADAAKLTMNGTSSAGTLAVSHDPVKPVTTSPLPAETDICLFSGSITQVGSPVGSAMNLIPEDGLPPILISTGVKGDYAVEEKPSQISVMQQLEDGGPDPLVFVLNANLLSMVKIVNYVNRKCWCFTTKGMHAVGQSEIVILLQCLPDEKCLPKDIFNHFVQLYRDALAGNVVSNLGHSFFSQSFLGSKEHGGFLYVTSTYQSLQDLVLPTPPYLFGILIQKWETPWAKVFPIRLMLRLGAEYRLYPCPLFSVRFRKPLFGETGHTIMNLLADFRNYQYTLPVVQGLVVDMEVRKTSIKIPSNRYNEMMKAMNKSNEHVLAGGACFNEKADSHLVCVQNDDGNYQTQAISIHNQPRKVTGASFFVFSGALKSSSGYLAKSSIVEDGVMVQITAENMDSLRQALREMKDFTITCGKADAEEPQEHIHIQWVDDDKNVSKGVVSPIDGKSMETITNVKIFHGSEYKANGKVIRWTEVFFLENDDQHNCLSDPADHSRLTEHVAKAFCLALCPHLKLLKEDGMTKLGLRVTLDSDQVGYQAGSNGQPLPSQYMNDLDSALVPVIHGGACQLSEGPVVMELIFYILENIV
In the case of B1, the binding [3] is reported as “binds”.

In the case of MDSYFKAAVSDLDKPLDDFEQN (peptide, UniProt Q7Z3T8 1-22) [endofin 22-mer peptide containing the L15P mutation], the binding [4] is reported as “no binding” and the binding [5] is reported as “no binding”.

B2: endofin 22-mer peptide (first 22 residues of endofin) (peptide, UniProt Q7Z3T8 1-22, looked up)
peptide: MDSYFKAAVSDLDKLLDDFEQN
notes: human endofin, first 22 residues; begins 1-MDSYF-5; also called endofin peptide; endofin_(1-22) (WT); source: synthetic peptide (Generon Ltd, UK)
For B2, the binding (His6-Alix_(Bro1) (1-359)) was “no binding”.
